± gives the standard deviation of the averaged measurements. Some of the results follow.

The subject of this test is PfAP2-I AP2 domain 3 (GST-tagged). The experiment in a line: gcPBM binding intensity (ln(normalized median fluorescence intensity)); higher = stronger DNA binding. In short, it runs like this: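 Plasmodium falciparum DNA-binding domains carrying a GST tag were expressed in E. coli and applied for 1 h, at about 25 μg on average, to an Agilent 4 × 180k array. The array held primer-extended double-stranded 36-bp intergenic genomic probes together with negative controls, and binding took place in 1× PBS with 1% milk, 0.2 mg/ml BSA, 0.5% salmon testes DNA and 0.03% Triton X-100. An Alexa488 anti-GST antibody detected bound protein, and the array was scanned at 488 nm. Binding intensity is taken as the highest Masliner-normalised natural-log median intensity across replicate spots of either probe orientation.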
Regarding “GTTATACTCATATATACACACATATGTAAATATATA [CACACA_site5764]”, the “gcPBM binding intensity (ln)” value came to 7.82 ± 0.46.
Regarding “ATTATATTAGGTAATCAGTTAAATGTTTCCTTTTTA [CACACA_negctrl_site1229]”, the “gcPBM binding intensity (ln)” value amounted to 7.44 ± 0.62.
Consider “TTTATATAATTTTGTGGTACTTATGTGTGTATATTA [XGTACX_site706]”, for which the “gcPBM binding intensity (ln)” value was determined as 7.99 ± 0.45.
Next, “AAAAAAAAAAAAAGTACACACTTATAAAATATTATG [CACACA_site4639]”: 8.03 ± 0.071; “TAAATTATCTTTTTATGTACTTATTTTTATTATTTT [XGTACX_site3158]”: 7.75 ± 0.7; “CGCGCACCCAGACACACACACACACCGATATATATA [CACACA_site8687]”: 8.46 ± 0.83.
Then “TATTTTCAACATATTTGTACATATTTTATATTTTAA [XGTACX_site101]”, with 7.96 ± 0.42; and “AAGAAAAAAAAAATTACACACTGCGGACATACACAA [CACACA_site4838]”, with 7.97 ± 0.67.
Next, “TCAATTTTACTTGTTTGTACATAAAATAATAAGGTT [XGTACX_site3732]”: 7.74 ± 0.45.
Regarding “AACATACACATATACACACACACATATATACCTATA [CACACA_site6643]”, the “gcPBM binding intensity (ln)” value was found to be 8.14 ± 0.59.
Next, “ATATTTTGTTTTTGTTCTTTTTTTTTCTTTTTTTTT [CACACA_negctrl_site1342]”: 7.58 ± 0.76; “TATATTAAATGAAACAAACACACATAGCCTTTAAAT [CACACA_site1559]”: 7.69 ± 0.57; “ATATCTACTATACAACTGAGTGTAGAAAAATTAAAC [CACACA_negctrl_site1211]”: 8.07 ± 0.63.
“ACTTTGCTCTACAATGCATGCTCATTTAACAAGGCA [TGCATGCA_site676]”: the “gcPBM binding intensity (ln)” value stood at 8.27 ± 0.81.
Take “ATATTTATAAATTGCACACAAATAATAACATTCTAT [CACACA_site2357]”: the “gcPBM binding intensity (ln)” value worked out at 8.69 ± 0.014.
Turning to “AATTGGGAAGGACATGCATGAGAAATTAATATTGCA [TGCATGCA_site424]”, the “gcPBM binding intensity (ln)” value worked out at 7.82 ± 0.67.
For the sequence “TATTATTATTATGGTAGTACATGTAGGTTATTAAAA [XGTACX_site5742]”, the “gcPBM binding intensity (ln)” value came out at 8.28 ± 0.25.
Then “TAATTCGCATTTTATACACACATTCGAACCTTTTTT [CACACA_site7549]”, with 7.97 ± 0.61.
Then “AAATTAATACATTATTGTACTTTTCATGTGCAGAAA [XGTACX_site8284]”, with 8.31 ± 0.18; and “CGGATGAATATATATGCACACATCTTTTGTAAAAAT [CACACA_site3190]”, with 9.16 ± 0.11; and “CATATTACATTAAATTGTACATATATATATATATAT [XGTACX_site3295]”, with 9.43 ± 0.55.
Turning to “TGTATAAATATATGCACACATATATATATTTATATA [CACACA_site3473]”, the “gcPBM binding intensity (ln)” value stood at 9.09 ± 0.52.
As to “TCAATAAATGAATATGCATGCACGCTCTTTAGAGAT [TGCATGCA_site553]”, the “gcPBM binding intensity (ln)” value turned out to be 10.8 ± 0.5.
Next, “GAGAAAAAAAAAAAAAAACACACGGTACATTCAAAG [CACACA_site1767]”: 7.67 ± 0.75; “AAAAAAAAAAAAAAATGTACATATATATAAATATAT [XGTACX_site6768]”: 7.97 ± 0.28.
Take “TATTTATATGTATATACATGCACATATATATGAAAC [TGCATGCA_site1005]”: the “gcPBM binding intensity (ln)” value turned out to be 8.35 ± 0.57.
For the sequence “ATATATATATATATATGTACATATTTTTATTTATAC [XGTACX_site2858]”, the “gcPBM binding intensity (ln)” value turned out to be 9.36 ± 0.46.
Next, “TATGTAATGTTTACAACACACAAATTATAAATACAA [CACACA_site1771]”: 7.6 ± 0.37; “ACCTATATACTAAATGCACACTTATATATTTATATA [CACACA_site5371]”: 9.98 ± 0.25.
Then “CTATTTTATATGTGCACACATATACTCAGACAAATA [CACACA_site4761]”, with 10.2; and “AAAGTAAAAAATCATAGTACACATTTAAATATATAT [XGTACX_site2323]”, with 8 ± 0.59.
For the sequence “GGTATATATTTATAATGTACATATTCATATATATAA [XGTACX_site3291]”, the “gcPBM binding intensity (ln)” value was found to be 7.76 ± 0.3.
Next, “TTTTTTAAATTATGTAGTACGATTCATTTTTTATAA [XGTACX_site1101]”: 7.59 ± 0.4; “TAATATATCAAATGAAGTACTCACATATACATAATA [XGTACX_site6051]”: 7.74 ± 0.52.
For “AAGATTTTCCTTGATAGTACACTTATGAAAATTTGT [XGTACX_site3047]”, the “gcPBM binding intensity (ln)” value is 7.94 ± 0.54.
As for “AATATCTTAGTGGATACACACATATAAATGTGGATT [CACACA_site485]”, the “gcPBM binding intensity (ln)” value was determined as 7.51 ± 0.64.
Consider “TTTTTTTTTTTTTTTTTTTTTTTGTCTTATTTTTTT [GTGCAC_negctrl_site338]”, for which the “gcPBM binding intensity (ln)” value came to 8.18 ± 0.93.
Next, “ATATATTACGACTTCTGTACATAATATATAAAAGAA [XGTACX_site2353]”: 7.89 ± 0.4; “TAAATTTATAGACACACACACATATAAATAAATATA [CACACA_site6530]”: 7.78 ± 0.46.
For the sequence “TGAATTAAGATTTATTGTACATAATTTATACCATAT [XGTACX_site7034]”, the “gcPBM binding intensity (ln)” value was 7.78 ± 0.42.
Then “ATATAATATATATATTGTACATATATTTATAAGCAT [XGTACX_site3726]”, with 7.78 ± 0.45.
“AATGTGCTCGCTATTACACACTCATTGGGATAAACT [CACACA_site7043]”: the “gcPBM binding intensity (ln)” value was 7.96 ± 0.57.
“TATATATATATATATTGTACATTTACCAAATTGTGT [XGTACX_site5791]”: the “gcPBM binding intensity (ln)” value was 9.41 ± 0.27.
Take “TTTAATAATAATACTAGTACACATTCTTTATTATTT [XGTACX_site2671]”: the “gcPBM binding intensity (ln)” value was 8.13 ± 0.28.
With “TATATAAATAAATATACACACATATATAAATATACA [CACACA_site2982]”, the “gcPBM binding intensity (ln)” value came to 7.42 ± 0.26.
As to “TTTTTTTTTTTTTGCACACTTAAATTTGGAGTGTAG [CACACA_site2345]”, the “gcPBM binding intensity (ln)” value amounted to 9.375 ± 0.064.
As for “GAAATAAATATAATATATATATATATATATATATGT [TGCATGCA_negctrl_site216]”, the “gcPBM binding intensity (ln)” value worked out at 8.25 ± 0.38.
“AAAAATAAATATATATGTACACATATGTATACAATA [XGTACX_site4692]”: the “gcPBM binding intensity (ln)” value is 7.65 ± 0.38.
Then “GGTATACACAGACATGCATGTAATTATATATAGGGA [TGCATGCA_site83]”, with 7.91 ± 0.69; and TTACAACATGAAAATGTGCACATATATATATATATA, with 9.785 ± 0.007.
Next, “TGAAATTCCATAAAATGTACATATTAGTTTAATTCA [XGTACX_site4031]”: 7.48 ± 0.34.
Consider “AATATATTTAATCATACACACATTTATGTACCTATA [CACACA_site1718]”, for which the “gcPBM binding intensity (ln)” value was 7.87 ± 0.61.
Then “TCGCCCTACAATTTGTTTATATATTAAATAAAATTT [CACACA_negctrl_site883]”, with 7.92 ± 0.56; and CATCATCTTTTAAAGGTGCATAATAATATTGTTAAT, with 11.4 ± 0.69; and “GTCTATTATTTTTGAAGTACAAAAATTTTAGTTAAA [XGTACX_site4708]”, with 7.93 ± 0.38.
Next, “ATGTTCTTTAAAACCACACACCCCCCAACCCCCCTC [CACACA_site2373]”: 10.6 ± 0.36; “TATAATGTTAAATAATGTACATATTTTTTTTTTTTT [XGTACX_site4721]”: 7.7 ± 0.18.
